The other results are listed elsewhere or left out.

The target of the assay is T1, OsWOX13 (Oryza sativa, UniProt Q5QMM3 1-267).
T1 sequence: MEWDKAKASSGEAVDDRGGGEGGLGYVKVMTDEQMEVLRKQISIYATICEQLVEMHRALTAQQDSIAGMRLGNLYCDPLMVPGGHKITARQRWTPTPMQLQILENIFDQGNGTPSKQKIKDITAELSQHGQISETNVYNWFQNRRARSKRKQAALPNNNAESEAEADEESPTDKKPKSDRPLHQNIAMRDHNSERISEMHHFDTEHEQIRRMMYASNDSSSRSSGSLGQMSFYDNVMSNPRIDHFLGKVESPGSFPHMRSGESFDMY
The experiment in a line: protein-binding microarray (RPBM); PBS, 2% BSA, 51.3 ng/ul salmon testes DNA, 50 uM zinc acetate, 200 nM TF, 25 C, 1 h; high values mean tight binding. To be noted: protein: recombinant; tags: N-terminal polyhistidine and DsRed monomer fusion (pET32a); label: CyDye5-dUTP incorporated in the synthesized complementary strand; 3' TTTTT single-stranded linker to array surface; dsDNA, one strand shown. Summed up: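 The binding signal is fluorescence intensity per feature, in arbitrary units, read on an Axon 4000B scanner. Polyhistidine- and DsRed-tagged transcription factors (N-terminal fusions) from E. coli BL21-CodonPlus were purified on Ni–NTA and applied at 200 nM for 1 h at 25 °C to a double-stranded, BSA-blocked custom Agilent array in buffer with 50 µM zinc acetate.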
Turning to “TGTTATTGATGTGCGTCGGATCTTGATCTAAGGGTTGAAACGGAGTCACCTAGTGCAG”, the binding signal is 3830 fluorescence intensity (a.u.).

In the case of “GAGAGACAATTGACTGGACTTTTGTCGTGTTGACCACAGCCGGAGTCACCTAGTGCAG”, the binding signal was 19500 fluorescence intensity (a.u.).

In the case of “AAATGTATAATTAATTCAATTGGCGATATTATAATATTAACGGAGTCACCTAGTGCAG”, the binding signal was 4440 fluorescence intensity (a.u.).

For “AATAAATAATGTAATTAACTAACAGTGCAAACTATTTCAACGGAGTCACCTAGTGCAG”, the binding signal was 13200 fluorescence intensity (a.u.).

For “ACATAATTATAACTTGTACTTATGTAACTACAACGCAAATCGGAGTCACCTAGTGCAG”, the binding signal is 26500 fluorescence intensity (a.u.).

As to “GTTTTAAGAGTAAAGTGCATTGGTGGTCCTTAAACTTATACGGAGTCACCTAGTGCAG”, the binding signal is 3880 fluorescence intensity (a.u.).

On to “CATAATTGCTGATATTTTGTCTTTGGAGTTTGATCCATGGCGGAGTCACCTAGTGCAG”, for which the binding signal was 44200 fluorescence intensity (a.u.).

As for “GTTAATAGATACAGGATTTATTGATATATGTTGTTGTACTCGGAGTCACCTAGTGCAG”, the binding signal was 37400 fluorescence intensity (a.u.).

Regarding “CGTTCAAATTAGTAGTTAGATATAAAACGAATGAAGTAAACGGAGTCACCTAGTGCAG”, the binding signal is 9800 fluorescence intensity (a.u.).

Regarding “TCCAAACGAATTAACAACAAATCAGTCGCGCGTTTGAAACCGGAGTCACCTAGTGCAG”, the binding signal was 4980 fluorescence intensity (a.u.).

Regarding “ATACAAATCACTGCCCATATCGCCCTCAAATACAAAATACCGGAGTCACCTAGTGCAG”, the binding signal was 5250 fluorescence intensity (a.u.).

As for “TTGGATTGGATACGGAAATACAGAAAGGGGTGGTAACTAACGGAGTCACCTAGTGCAG”, the binding signal was 6120 fluorescence intensity (a.u.).

Regarding “ATGATTTGACACTTTATATGTTGCCAATTTGATTGTATTTCGGAGTCACCTAGTGCAG”, the binding signal was 29000 fluorescence intensity (a.u.).

As for “GAGAGTCTCGCCAATCTATGCAGCAATAATTACAACGAGCCGGAGTCACCTAGTGCAG”, the binding signal was 3890 fluorescence intensity (a.u.).

For “GCTCAATCATGTGGTTACCTTCCATACCATCTTTCTGCCTCGGAGTCACCTAGTGCAG”, the binding signal was 18900 fluorescence intensity (a.u.).

As to “CGGAGCAGATTAGCGCTAATGCATAAAGCTGGAGTACTCCCGGAGTCACCTAGTGCAG”, the binding signal is 4250 fluorescence intensity (a.u.).

Take “AGAAATTGAGAGGATGACATGTGGATCCTACATATCAGTGCGGAGTCACCTAGTGCAG”: the binding signal is 33400 fluorescence intensity (a.u.).

As to “TTTATGATTTCTTGGACAATTTTGGAGCCATTTCGTTTAGCGGAGTCACCTAGTGCAG”, the binding signal was 10600 fluorescence intensity (a.u.).

Turning to “TATAAAATTATAGATAATATAACATGTTTGCATGATGTTTCGGAGTCACCTAGTGCAG”, the binding signal is 5670 fluorescence intensity (a.u.).

For “AATCTTTATTGATTGTAAATTTAGCTTATGTATTGGTTAACGGAGTCACCTAGTGCAG”, the binding signal was 27000 fluorescence intensity (a.u.).

As to “ATTGCACTCAAATAAATTAGGAAATCTCCTTTGTGAATTCCGGAGTCACCTAGTGCAG”, the binding signal is 3440 fluorescence intensity (a.u.).

As for “CTAAAATTTATTTATTTTAATAATATTCTCCCATGATTAGCGGAGTCACCTAGTGCAG”, the binding signal is 6240 fluorescence intensity (a.u.).

Consider “TATATATCTTAATTAACGTTGCTGGTGTACTGAGAACAAGCGGAGTCACCTAGTGCAG”, for which the binding signal is 4930 fluorescence intensity (a.u.).

For the sequence “ATTCATTTAGATGTTAATAAATTTAGACATATATATGTATCGGAGTCACCTAGTGCAG”, the binding signal was 9560 fluorescence intensity (a.u.).

Consider “CTGGACTGTCAAATCAAGGAGGATTGCGTACTAATCATGTCGGAGTCACCTAGTGCAG”, for which the binding signal is 9940 fluorescence intensity (a.u.).

For the sequence “TGATCAAATAATTGACCATAATTTTCCAGCAATTTTAAATCGGAGTCACCTAGTGCAG”, the binding signal was 21600 fluorescence intensity (a.u.).

For “AGTAATTTACTTGCTAGCTTGCAACTATTTCTTAGTACATCGGAGTCACCTAGTGCAG”, the binding signal is 3460 fluorescence intensity (a.u.).

In the case of “TAGCTAATTCATATAATAATCACCTATAAACATATACTACCGGAGTCACCTAGTGCAG”, the binding signal is 3660 fluorescence intensity (a.u.).

As for “TTGACTAATCTATGTGTATATCCTGATACTGGCCGACATCCGGAGTCACCTAGTGCAG”, the binding signal is 3400 fluorescence intensity (a.u.).

With “ATATTTAAATTAATATTTTAGAACGGCCATTATATAAAATCGGAGTCACCTAGTGCAG”, the binding signal was 4710 fluorescence intensity (a.u.).

With “ATATCTATCTCTGATTATCCAATTGAAGTGCAACAAGAACCGGAGTCACCTAGTGCAG”, the binding signal was 4450 fluorescence intensity (a.u.).

Turning to “ATCAAAATATCAGATACAGCCAATCAGCCATGCGTACCAACGGAGTCACCTAGTGCAG”, the binding signal is 4580 fluorescence intensity (a.u.).

Take “AATGTGTTAGCGTTTAATTTGCGATTGGATTTGTTTCAGGCGGAGTCACCTAGTGCAG”: the binding signal was 3560 fluorescence intensity (a.u.).

With “AAATGAATGCTGATTGCTCCCACGTTGGAAAATTGGGGCTCGGAGTCACCTAGTGCAG”, the binding signal was 21100 fluorescence intensity (a.u.).

“GTTACAGTGTAATTTATGAAACTTACACGGTAACTTTTGTCGGAGTCACCTAGTGCAG”: the binding signal was 3720 fluorescence intensity (a.u.).

As to “TTGTAATTACATAAATTATACGAATTGTAAAGATTTGGCACGGAGTCACCTAGTGCAG”, the binding signal is 54600 fluorescence intensity (a.u.).

With “TACTAATCATAGACTAATTAGGCTCAAAAGATTCGTCTCACGGAGTCACCTAGTGCAG”, the binding signal was 31300 fluorescence intensity (a.u.).

Take “AAGGAAAAGGAAAAGAAAATAATTGACGACGTTGACCTCGCGGAGTCACCTAGTGCAG”: the binding signal was 3330 fluorescence intensity (a.u.).

For the sequence “AGGGATAAATAATTGTTAGAGTATTTTATCATCTCAACTGCGGAGTCACCTAGTGCAG”, the binding signal is 3960 fluorescence intensity (a.u.).

For the sequence “AAAGATTTGTCTCACAATTTACACACAATCTGTGTAATTACGGAGTCACCTAGTGCAG”, the binding signal is 3600 fluorescence intensity (a.u.).

Turning to “AAAATTAAGCTCTAATTAATTAATCTTTTGTAGAAGTTAACGGAGTCACCTAGTGCAG”, the binding signal was 13900 fluorescence intensity (a.u.).

With “TCACTTATCACCAGTATTGATTTGTTGAATTATTATCATTCGGAGTCACCTAGTGCAG”, the binding signal was 9780 fluorescence intensity (a.u.).

With “CACCAAAACAAATTTGTTAAACACAAGCGTTGATGAAGCACGGAGTCACCTAGTGCAG”, the binding signal was 10300 fluorescence intensity (a.u.).

Take “TCGTCTTCTCCACATCAATCACCAGCTATCTCGATCGTGACGGAGTCACCTAGTGCAG”: the binding signal is 7980 fluorescence intensity (a.u.).

With “TAAATTGACACATCACCTCTAGGATCCTACGTGGCGTTGACGGAGTCACCTAGTGCAG”, the binding signal was 38000 fluorescence intensity (a.u.).

Turning to “TGGATTGAAACCTAAATTGCCCTAATTTCTTAGACCCCTACGGAGTCACCTAGTGCAG”, the binding signal is 33600 fluorescence intensity (a.u.).

Consider “ATGGCTATAATTGTGAACCAAGTCATCAAACCTACTGGTTCGGAGTCACCTAGTGCAG”, for which the binding signal was 4510 fluorescence intensity (a.u.).

Turning to “GTATTAATTTCTACTACTATATACGAAGGGGTACCCTTTTCGGAGTCACCTAGTGCAG”, the binding signal is 3400 fluorescence intensity (a.u.).

“ATTTAGACAGGTTCAGACCATCTCAATAAGAGGTACGTAACGGAGTCACCTAGTGCAG”: the binding signal was 19500 fluorescence intensity (a.u.).

On to “TTTAATAGGATGTATCATAAAATTAAATTTATCATAGAACCGGAGTCACCTAGTGCAG”, for which the binding signal is 11700 fluorescence intensity (a.u.).

As for “GATCGATCTCGTTAATTAGGGTTAGATCACCGGCCGGCACCGGAGTCACCTAGTGCAG”, the binding signal is 4420 fluorescence intensity (a.u.).

For “CCATTTTAAATCATTGAAATCCCTGTATATGCATTACAAGCGGAGTCACCTAGTGCAG”, the binding signal was 4730 fluorescence intensity (a.u.).

In the case of “TTTGATGAAGCGATGATTATTTTAAATTTTCTTTTGGTTTCGGAGTCACCTAGTGCAG”, the binding signal was 23300 fluorescence intensity (a.u.).

For the sequence “GGGTTCTTCCAGGTTAATTAATTAGCAAACACACACTTACCGGAGTCACCTAGTGCAG”, the binding signal is 14100 fluorescence intensity (a.u.).

For the origin of these results see article PMC7819943, “Rice protein-binding microarrays: a tool to detect cis-acting elements near promoter regions in rice”.
